# From the supplement of paper PMC10037445
# ± gives the standard deviation of the averaged measurements. The full ranking holds about 2,900 compounds; the median of “NF-kB SEAP reporter activity, fold change vs agonist alone” is about 0.99, and the highest 2% start at about 2.6. The list shows a part of the results.
# What was measured:
# RAW-Dual [1] = experiment: NF-kB SEAP reporter activity, fold change vs agonist alone; higher = enhanced NF-kB activity
# Outline: (§1)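 Cytotoxic wells were those whose IncuCyte confluency was below 70% of agonist controls in both mask sets. The cells were RAW-Dual macrophages at 50,000 cells/well in DMEM on 384-well plates, dosed with 50 nL of library stock by pin tool, stimulated with a PRR agonist 1 h later, and kept at 37 °C, 5% CO2 for 20 hours. IRF and NF-κB reporter activity, as fold change over agonist-alone wells, came from supernatant read by QuantiLuc luminescence and QuantiBlue absorbance, respectively.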
# RAW-Dual [2] = experiment: NF-kB SEAP reporter activity, fold change vs agonist alone; cytotoxicity flag (confluency mask): not cytotoxic; higher = enhanced NF-kB activity
# Outline: as §1
# RAW-Dual [3] = experiment: NF-kB SEAP reporter activity, fold change vs agonist alone; cytotoxicity flag (confluency mask): cytotoxic (confluency <70% of control); higher = enhanced NF-kB activity
# Outline: as §1
# [4] = agonist: ODN 1826 (TLR9) 0.5 ug/mL
# [5] = agonist: Pam2CSK4 (TLR2/6) 0.1 ug/mL
# [6] = agonist: Pam3CSK4 (TLR2/1) 0.1 ug/mL
# [7] = library stock concentration (final ~1000-fold dilution): 10 mM, cytotoxicity flag (confluency mask): not cytotoxic, agonist: Imiquimod (TLR7) […]
# [8] = library stock concentration (final ~1000-fold dilution): 10 mM, cytotoxicity flag (confluency mask): not cytotoxic, agonist: MPLA (TLR4) […]
structure (smiles),measurement,setting,value
O=c1oc2c(O)c(O)cc3c(=O)oc4c(O)c(O)cc1c4c23,NF-kB SEAP reporter activity,"RAW-Dual [1]; library stock concentration (final ~1000-fold dilution): 2 mM, cytotoxicity flag (confluency mask): not cytotoxic, agonist: Imiquimod (TLR7) […]",0.988
same,NF-kB SEAP reporter activity,"RAW-Dual [1]; library stock concentration (final ~1000-fold dilution): 2 mM, cytotoxicity flag (confluency mask): not cytotoxic, agonist: MPLA (TLR4) […]",1.05
O=c1oc2c(O)c(O)cc3c(=O)oc4c(O)c(O)cc1c4c23 (library stock concentration (final ~1000-fold dilution): 2 mM),NF-kB SEAP reporter activity,RAW-Dual [2]; agonist: LPS (TLR4) 0.1 ug/mL,1.36
same,NF-kB SEAP reporter activity,RAW-Dual [2]; [4],1.05
same,NF-kB SEAP reporter activity,RAW-Dual [2]; [5],1.03
same,NF-kB SEAP reporter activity,RAW-Dual [2]; [6],0.9
CONC(=O)Nc1ccc(-c2sc3c(c2CN(C)C)c(=O)n(-c2ccc(OC)nn2)c(=O)n3Cc2c(F)cccc2F)cc1 (library stock concentration (final ~1000-fold dilution): 10 mM),NF-kB SEAP reporter activity,RAW-Dual [3]; agonist: LPS (TLR4) 0.1 ug/mL,3.39
same,NF-kB SEAP reporter activity,RAW-Dual [3]; [4],0.26
same,NF-kB SEAP reporter activity,RAW-Dual [3]; [5],1.01
same,NF-kB SEAP reporter activity,RAW-Dual [3]; [6],1.88
CONC(=O)Nc1ccc(-c2sc3c(c2CN(C)C)c(=O)n(-c2ccc(OC)nn2)c(=O)n3Cc2c(F)cccc2F)cc1,NF-kB SEAP reporter activity,"RAW-Dual [1]; library stock concentration (final ~1000-fold dilution): 10 mM, cytotoxicity flag (confluency mask): cytotoxic (confluency <70% of control), agonist: Imiquimod (TLR7) […]",2.02
same,NF-kB SEAP reporter activity,"RAW-Dual [1]; library stock concentration (final ~1000-fold dilution): 10 mM, cytotoxicity flag (confluency mask): cytotoxic (confluency <70% of control), agonist: MPLA (TLR4) […]",2.5
N=C(N)c1ccc(OCCCCCOc2ccc(C(=N)N)cc2)cc1.O=S(=O)(O)CCO.O=S(=O)(O)CCO (library stock concentration (final ~1000-fold dilution): 10 mM),NF-kB SEAP reporter activity,RAW-Dual [2]; agonist: LPS (TLR4) 0.1 ug/mL,3.88
same,NF-kB SEAP reporter activity,RAW-Dual [2]; [4],1.22
same,NF-kB SEAP reporter activity,RAW-Dual [2]; [5],0.758
same,NF-kB SEAP reporter activity,RAW-Dual [2]; [6],1.06
N=C(N)c1ccc(OCCCCCOc2ccc(C(=N)N)cc2)cc1.O=S(=O)(O)CCO.O=S(=O)(O)CCO,NF-kB SEAP reporter activity,RAW-Dual [1]; [7],1.39
same,NF-kB SEAP reporter activity,RAW-Dual [1]; [8],1.89
O=C(O)CC(C(=O)O)N1C(=O)/C(=C2/C(=O)Nc3ccc(Br)cc32)SC1=S (centres undefined),NF-kB SEAP reporter activity,RAW-Dual [1]; [7],1.33
same,NF-kB SEAP reporter activity,RAW-Dual [1]; [8],1.72
O=C(O)CC(C(=O)O)N1C(=O)/C(=C2/C(=O)Nc3ccc(Br)cc32)SC1=S (centres undefined) (library stock concentration (final ~1000-fold dilution): 10 mM),NF-kB SEAP reporter activity,RAW-Dual [2]; agonist: LPS (TLR4) 0.1 ug/mL,0.98
same,NF-kB SEAP reporter activity,RAW-Dual [2]; [4],1.56
same,NF-kB SEAP reporter activity,RAW-Dual [2]; [5],1.02
same,NF-kB SEAP reporter activity,RAW-Dual [2]; [6],1.06
CNC(=O)c1ccccc1Nc1cc(Nc2ccc(N3CCOCC3)cc2OC)ncc1C(F)(F)F,NF-kB SEAP reporter activity,RAW-Dual [1]; [7],0.68
same,NF-kB SEAP reporter activity,RAW-Dual [1]; [8],0.407
CNC(=O)c1ccccc1Nc1cc(Nc2ccc(N3CCOCC3)cc2OC)ncc1C(F)(F)F (library stock concentration (final ~1000-fold dilution): 10 mM),NF-kB SEAP reporter activity,RAW-Dual [2]; agonist: LPS (TLR4) 0.1 ug/mL,0.259
same,NF-kB SEAP reporter activity,RAW-Dual [2]; [4],0.552
same,NF-kB SEAP reporter activity,RAW-Dual [2]; [5],0.324
same,NF-kB SEAP reporter activity,RAW-Dual [2]; [6],0.207
CNC(=O)c1cc(Oc2ccc(NC(=O)Nc3ccc(Cl)c(C(F)(F)F)c3)cc2)ccn1 (library stock concentration (final ~1000-fold dilution): 10 mM),NF-kB SEAP reporter activity,RAW-Dual [2]; agonist: LPS (TLR4) 0.1 ug/mL,1.11
same,NF-kB SEAP reporter activity,RAW-Dual [2]; [4],0.911
same,NF-kB SEAP reporter activity,RAW-Dual [2]; [5],0.194
same,NF-kB SEAP reporter activity,RAW-Dual [2]; [6],0.258
CNC(=O)c1cc(Oc2ccc(NC(=O)Nc3ccc(Cl)c(C(F)(F)F)c3)cc2)ccn1,NF-kB SEAP reporter activity,RAW-Dual [1]; [7],0.641
same,NF-kB SEAP reporter activity,RAW-Dual [1]; [8],1.93
Cc1ccc(S(=O)(=O)Cc2nc(-c3ccc(C(=O)NCc4cccnc4)cc3)oc2C)cc1 (library stock concentration (final ~1000-fold dilution): 10 mM),NF-kB SEAP reporter activity,RAW-Dual [2]; agonist: LPS (TLR4) 0.1 ug/mL,1.75
same,NF-kB SEAP reporter activity,RAW-Dual [2]; [4],1.62
same,NF-kB SEAP reporter activity,RAW-Dual [2]; [5],0.917
same,NF-kB SEAP reporter activity,RAW-Dual [2]; [6],0.758
Cc1ccc(S(=O)(=O)Cc2nc(-c3ccc(C(=O)NCc4cccnc4)cc3)oc2C)cc1,NF-kB SEAP reporter activity,RAW-Dual [1]; [7],1.16
same,NF-kB SEAP reporter activity,RAW-Dual [1]; [8],0.965
CCn1cc(C(=O)O)c(=O)c2c(N)c(F)c(NC3CCCCC3)cc21 (library stock concentration (final ~1000-fold dilution): 10 mM),NF-kB SEAP reporter activity,RAW-Dual [2]; agonist: LPS (TLR4) 0.1 ug/mL,4.89
same,NF-kB SEAP reporter activity,RAW-Dual [2]; [4],2.9
same,NF-kB SEAP reporter activity,RAW-Dual [2]; [5],1.85
same,NF-kB SEAP reporter activity,RAW-Dual [2]; [6],3.32
CCn1cc(C(=O)O)c(=O)c2c(N)c(F)c(NC3CCCCC3)cc21,NF-kB SEAP reporter activity,RAW-Dual [1]; [7],1.75
same,NF-kB SEAP reporter activity,RAW-Dual [1]; [8],1.95
O=C1CC(c2ccc(O)cc2)Oc2cc(O)cc(O)c21 (centres undefined),NF-kB SEAP reporter activity,RAW-Dual [1]; [7],1.22
same,NF-kB SEAP reporter activity,RAW-Dual [1]; [8],1.15
O=C1CC(c2ccc(O)cc2)Oc2cc(O)cc(O)c21 (centres undefined) (library stock concentration (final ~1000-fold dilution): 10 mM),NF-kB SEAP reporter activity,RAW-Dual [2]; agonist: LPS (TLR4) 0.1 ug/mL,1.63
same,NF-kB SEAP reporter activity,RAW-Dual [2]; [4],1.21
same,NF-kB SEAP reporter activity,RAW-Dual [2]; [5],0.926
same,NF-kB SEAP reporter activity,RAW-Dual [2]; [6],1.32
COc1cc(-c2oc3cc(O)cc(O)c3c(=O)c2O)ccc1O (library stock concentration (final ~1000-fold dilution): 10 mM),NF-kB SEAP reporter activity,RAW-Dual [2]; agonist: LPS (TLR4) 0.1 ug/mL,1.57 ± 0.059
same,NF-kB SEAP reporter activity,RAW-Dual [2]; [4],0.925 ± 0.031
same,NF-kB SEAP reporter activity,RAW-Dual [2]; [5],0.969 ± 0.0099
same,NF-kB SEAP reporter activity,RAW-Dual [2]; [6],1.23 ± 0.064
COc1cc(-c2oc3cc(O)cc(O)c3c(=O)c2O)ccc1O,NF-kB SEAP reporter activity,RAW-Dual [1]; [7],1.2 ± 0.064
same,NF-kB SEAP reporter activity,RAW-Dual [1]; [8],1.738 ± 0.0039
CNCCCC12CCC(c3ccccc31)c1ccccc12.Cl,NF-kB SEAP reporter activity,RAW-Dual [1]; [7],1.4
same,NF-kB SEAP reporter activity,RAW-Dual [1]; [8],1.37
CNCCCC12CCC(c3ccccc31)c1ccccc12.Cl (library stock concentration (final ~1000-fold dilution): 10 mM),NF-kB SEAP reporter activity,RAW-Dual [2]; agonist: LPS (TLR4) 0.1 ug/mL,1.55
same,NF-kB SEAP reporter activity,RAW-Dual [2]; [4],0.443
same,NF-kB SEAP reporter activity,RAW-Dual [2]; [5],0.537
same,NF-kB SEAP reporter activity,RAW-Dual [2]; [6],0.603
CS(=O)(=O)O.CS(=O)(=O)O.N=C(N)Nc1ccc(C(=O)Oc2ccc3cc(C(=N)N)ccc3c2)cc1,NF-kB SEAP reporter activity,RAW-Dual [1]; [7],1.01
same,NF-kB SEAP reporter activity,RAW-Dual [1]; [8],1.02
CS(=O)(=O)O.CS(=O)(=O)O.N=C(N)Nc1ccc(C(=O)Oc2ccc3cc(C(=N)N)ccc3c2)cc1 (library stock concentration (final ~1000-fold dilution): 10 mM),NF-kB SEAP reporter activity,RAW-Dual [2]; agonist: LPS (TLR4) 0.1 ug/mL,1.08
same,NF-kB SEAP reporter activity,RAW-Dual [2]; [4],1.05
same,NF-kB SEAP reporter activity,RAW-Dual [2]; [5],1.02
same,NF-kB SEAP reporter activity,RAW-Dual [2]; [6],0.924
CN1CCC(=C2c3ccccc3C=Cc3ccccc32)CC1.Cl,NF-kB SEAP reporter activity,RAW-Dual [1]; [7],1.53
same,NF-kB SEAP reporter activity,RAW-Dual [1]; [8],1.1
